From paper PMC9911399, “Two distinct binding modes provide the RNA-binding protein RbFox with extraordinary sequence specificity” come the findings set out here.

Changes are numbered by the printed parent chain; changes in the protein carry UniProt numbers. This is one part of the list.

First the molecules themselves.
B1: UAUCCGU (DNA:RNA)
RNA: GGGAGACCGGAAUUCAGAUUGUCCUAUCCGUUUAAAUCCCGUCGUAGCCACCA
DNA 1: CAATCTGAATTCCGGTCTCCC
DNA 2: TGGTGGCTACGACGGGATT
B2: CUAUAGU (DNA:RNA)
RNA: B1 RNA with U25C, A26U, U27A, C28U, C29A
DNA 1: CAATCTGAATTCCGGTCTCCC
DNA 2: TGGTGGCTACGACGGGATT
B3: UGUCAAC (DNA:RNA)
RNA: B1 RNA with A26G, C29A, G30A, U31C
DNA 1: CAATCTGAATTCCGGTCTCCC
DNA 2: TGGTGGCTACGACGGGATT
B4: ACGGAUA (DNA:RNA)
RNA: GGGAGACCGGAAUUCAGAUUGUCCACGGAUAUUAAAUCCCGUCGUAGCCACCA
DNA 1: CAATCTGAATTCCGGTCTCCC
DNA 2: TGGTGGCTACGACGGGATT
B5: CUUCUUG (DNA:RNA)
RNA: B1 RNA with U25C, A26U, C29U, G30U, U31G
DNA 1: CAATCTGAATTCCGGTCTCCC
DNA 2: TGGTGGCTACGACGGGATT
B6: GGGGACG (DNA:RNA)
RNA: B4 RNA with A25G, C26G, U30C, A31G
DNA 1: CAATCTGAATTCCGGTCTCCC
DNA 2: TGGTGGCTACGACGGGATT
B7: CGCGCUU (DNA:RNA)
RNA: B4 RNA with A25C, C26G, G27C, A29C, A31U
DNA 1: CAATCTGAATTCCGGTCTCCC
DNA 2: TGGTGGCTACGACGGGATT
B8: GCGGGGC (DNA:RNA)
RNA: B4 RNA with A25G, A29G, U30G, A31C
DNA 1: CAATCTGAATTCCGGTCTCCC
DNA 2: TGGTGGCTACGACGGGATT
B9: UGCUUCC (DNA:RNA)
RNA: B1 RNA with A26G, U27C, C28U, C29U, G30C, U31C
DNA 1: CAATCTGAATTCCGGTCTCCC
DNA 2: TGGTGGCTACGACGGGATT
B10: GAGUUCA (DNA:RNA)
RNA: B4 RNA with A25G, C26A, G28U, A29U, U30C
DNA 1: CAATCTGAATTCCGGTCTCCC
DNA 2: TGGTGGCTACGACGGGATT
B11: UUUACCG (DNA:RNA)
RNA: B1 RNA with A26U, C28A, G30C, U31G
DNA 1: CAATCTGAATTCCGGTCTCCC
DNA 2: TGGTGGCTACGACGGGATT
B12: CGGCGGC (DNA:RNA)
RNA: B1 RNA with U25C, A26G, U27G, C29G, U31C
DNA 1: CAATCTGAATTCCGGTCTCCC
DNA 2: TGGTGGCTACGACGGGATT
B13: UUUGCGG (DNA:RNA)
RNA: B1 RNA with A26U, C28G, U31G
DNA 1: CAATCTGAATTCCGGTCTCCC
DNA 2: TGGTGGCTACGACGGGATT
B14: GAUACAA (DNA:RNA)
RNA: B1 RNA with U25G, C28A, G30A, U31A
DNA 1: CAATCTGAATTCCGGTCTCCC
DNA 2: TGGTGGCTACGACGGGATT
B15: CCACCUA (DNA:RNA)
RNA: B4 RNA with A25C, G27A, G28C, A29C
DNA 1: CAATCTGAATTCCGGTCTCCC
DNA 2: TGGTGGCTACGACGGGATT
B16: AAGCAAG (DNA:RNA)
RNA: B4 RNA with C26A, G28C, U30A, A31G
DNA 1: CAATCTGAATTCCGGTCTCCC
DNA 2: TGGTGGCTACGACGGGATT
B17: AACCCCA (DNA:RNA)
RNA: B1 RNA with U25A, U27C, G30C, U31A
DNA 1: CAATCTGAATTCCGGTCTCCC
DNA 2: TGGTGGCTACGACGGGATT
B18: GAUCGGU (DNA:RNA)
RNA: B1 RNA with U25G, C29G
DNA 1: CAATCTGAATTCCGGTCTCCC
DNA 2: TGGTGGCTACGACGGGATT
B19: ACGUGGC (DNA:RNA)
RNA: B4 RNA with G28U, A29G, U30G, A31C
DNA 1: CAATCTGAATTCCGGTCTCCC
DNA 2: TGGTGGCTACGACGGGATT
B20: GGACAGA (DNA:RNA)
RNA: B4 RNA with A25G, C26G, G27A, G28C, U30G
DNA 1: CAATCTGAATTCCGGTCTCCC
DNA 2: TGGTGGCTACGACGGGATT

The assay addresses T1, RBFOX1 RRM RbFoxmut (Fox-RRM*) (Homo sapiens, UniProt Q9NWB1 109-208, R118D;E147R;N151S;E152T).
T1 sequence: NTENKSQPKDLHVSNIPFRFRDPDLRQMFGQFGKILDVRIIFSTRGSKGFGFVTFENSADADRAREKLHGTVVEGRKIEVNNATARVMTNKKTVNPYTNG
Nature of the assay: EMSA; HiTS-Eq, 1 nM pool, 10 min; buffer printed only for the single-RNA assays: 10 mM Tris pH 7.5, 150 mM NaCl, 3.4 mM EDTA, 0.001% NP-40, 30 C. The settings on record: tags: His6 N-terminal (pET28a); label: 5' 32P. In short, it runs like this:
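A pool of RNA with 7 randomized nucleotides, 5′-radiolabelled and with DNA-annealed flanks, was equilibrated at 1 nM for 10 min in 50 µL with purified RbFox RRM, wild type or mutant, across increasing protein concentrations. Free RNA was separated by 8% native PAGE, excised, reverse-transcribed, barcoded by PCR and sequenced. Relative association constants were obtained from read-count changes of each RNA species versus the control reaction and normalised to the cognate motif.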
As to B1, the binding signal is 0.086 KA relative to UGCAUGU.
Next, B2: 0.0923 KA relative to UGCAUGU; B3: 0.074 KA relative to UGCAUGU.
In the case of B4, the binding signal was 0.0922 KA relative to UGCAUGU.
With B5, the binding signal was 0.119 KA relative to UGCAUGU.
The value for B6 was 0.129 KA relative to UGCAUGU.
In the case of B7, the binding signal is 0.1 KA relative to UGCAUGU.
B8: the binding signal is 0.116 KA relative to UGCAUGU.
For the molecule B9, the binding signal is 0.0975 KA relative to UGCAUGU.
For the molecule B10, the binding signal is 0.0974 KA relative to UGCAUGU.
Next, B11: 0.132 KA relative to UGCAUGU.
The value for B12 was 0.0901 KA relative to UGCAUGU; that for B13 was 0.0855 KA relative to UGCAUGU; that for B14 was 0.0401 KA relative to UGCAUGU.
As to B15, the binding signal was 0.142 KA relative to UGCAUGU.
Take B16: the binding signal is 0.103 KA relative to UGCAUGU.
B17: the binding signal is 0.0673 KA relative to UGCAUGU.
As for B18, the binding signal was 0.15 KA relative to UGCAUGU.
In the case of B19, the binding signal was 0.119 KA relative to UGCAUGU.
With B20, the binding signal is 0.0739 KA relative to UGCAUGU.
